PubChem BioAssay AID504339 (National Center for Advancing Translational Sciences (NCATS), 2011)
In all, about 390,000 compounds went through this assay and about 17,000 (4.4%) were called active. The inconclusive results got no clear call from the source; some entries with a clear call stand among them for comparison. The call rests on the fitted dose curve; in most records, active means well fitted inhibition curve with a large enough effect; inconclusive means small, poorly fitted or top-dose-only effect; inactive means no such curve, though single readings can be large or run the other way. A potency beside an inconclusive call is a rough fit, not a confirmed value.

What follows are compounds tested against Lysine-specific demethylase 4A (Homo sapiens) (UniProt O75164) (assay: qHTS Assay for Inhibitors of JMJD2A-Tudor Domain). Settings: AlphaScreen JMJD2A-Tudor / H3K4me3 peptide binding; series mostly up to 114 µM.
UniProt O75164, sequence (O75164 whole entry, looked up, the tested form may be a part): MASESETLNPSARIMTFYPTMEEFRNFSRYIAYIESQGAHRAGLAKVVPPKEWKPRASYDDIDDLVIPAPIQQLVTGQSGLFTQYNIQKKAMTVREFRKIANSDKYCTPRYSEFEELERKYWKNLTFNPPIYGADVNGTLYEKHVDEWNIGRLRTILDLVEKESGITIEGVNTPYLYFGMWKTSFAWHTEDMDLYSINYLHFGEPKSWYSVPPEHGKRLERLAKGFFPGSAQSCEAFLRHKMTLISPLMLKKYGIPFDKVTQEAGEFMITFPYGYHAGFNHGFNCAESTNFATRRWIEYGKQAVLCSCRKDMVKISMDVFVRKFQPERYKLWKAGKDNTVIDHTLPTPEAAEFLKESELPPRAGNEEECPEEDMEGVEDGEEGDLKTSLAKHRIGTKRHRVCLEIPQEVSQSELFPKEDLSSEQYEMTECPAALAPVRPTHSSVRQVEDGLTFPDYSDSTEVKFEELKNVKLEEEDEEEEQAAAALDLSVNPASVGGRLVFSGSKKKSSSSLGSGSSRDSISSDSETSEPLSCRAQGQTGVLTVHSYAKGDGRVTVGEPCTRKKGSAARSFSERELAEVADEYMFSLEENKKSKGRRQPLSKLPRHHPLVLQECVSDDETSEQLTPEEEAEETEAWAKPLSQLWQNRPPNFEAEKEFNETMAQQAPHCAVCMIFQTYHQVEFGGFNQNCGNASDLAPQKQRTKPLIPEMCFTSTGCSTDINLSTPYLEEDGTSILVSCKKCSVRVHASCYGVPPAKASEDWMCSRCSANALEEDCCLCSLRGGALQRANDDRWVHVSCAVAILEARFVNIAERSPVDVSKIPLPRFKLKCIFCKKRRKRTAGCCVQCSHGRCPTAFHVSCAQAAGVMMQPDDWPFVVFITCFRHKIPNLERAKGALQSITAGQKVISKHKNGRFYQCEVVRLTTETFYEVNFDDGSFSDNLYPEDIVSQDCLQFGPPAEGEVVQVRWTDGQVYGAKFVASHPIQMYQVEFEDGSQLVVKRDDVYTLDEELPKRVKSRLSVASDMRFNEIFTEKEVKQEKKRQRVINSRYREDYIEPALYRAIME
Further: nearly all actives have a fitted effect of over 50% in size.
Potency means the concentration at half of the fitted maximal effect; tags describe the fitted curve by direction and shape.

Potency, inconclusive:
Fc1cc(F)cc(-c2c(-c3ccccc3)ncc3ccc(F)cc23)c1 39.8 µM [inhibitor, single point]
O=C(Cn1c(=O)c2cccn2c2ccc(F)cc21)NCc1cccc(Cl)c1 56.2 µM [inhibitor, partial curve]
CCCCCC(=O)Nc1nc(C)c(-c2csc(Nc3ccccc3OCC)n2)s1 56.2 µM [inhibitor, partial curve]
OC(CN1CCN(c2cccc(C(F)(F)F)c2)CC1)c1c[nH]c2ccccc12 (stereo unspecified) 79.4 µM [inhibitor, partial curve]
C[C@H](CO)N1C[C@H](C)[C@H](CN(C)S(=O)(=O)c2cccs2)Oc2ccc(NC(=O)Nc3ccc4c(c3)OCO4)cc2CC1=O 17.8 µM [inhibitor, full curve]
CCOC(=O)c1cnc(-n2nc(C)cc2C)nc1NCc1ccc2c(c1)OCO2 3.16 µM [inhibitor, full curve, poor fit]
CSC(=S)N/N=C/c1ccc(N(C)C)cc1 39.8 µM [inhibitor, single point]
CC(C)(C)c1ccc(S(=O)(=O)Nc2ccc(Cc3ccncc3)cc2)cc1 20 µM [inhibitor, full curve, poor fit]
Cc1cc(NC(=O)CSc2nc3c(c(-c4cccnc4)c2C#N)CCC3)no1 100 µM [inhibitor, single point]
O=c1oc(-c2ccc(O)c(O)c2)cc2cccc(O)c12 89.1 µM [inhibitor, single point]
O=C(Nc1nccs1)c1ccc(-c2ccccc2[N+](=O)[O-])o1 25.1 µM [inhibitor, full curve, poor fit]
CC(C)NS(=O)(=O)c1cc(C(=O)O)ccc1Cl 39.8 µM [inhibitor, single point]
Cc1ccc(-c2nnc(N3CCCCC3)c3ccccc23)cc1S(=O)(=O)NCC1CCCO1 (stereo unspecified) 79.4 µM [inhibitor, partial curve]
Cc1cnc(NC2=NCCC2)s1 3.98 µM [inhibitor, full curve]
CCc1c(C)nc2c(-c3ccccc3)c(C)[nH]n2c1=O 31.6 µM [inhibitor, partial curve]
O=C(CCC(=O)N1CC2CCCN2c2ccccc21)NCc1ccccc1Cl (stereo unspecified) 63.1 µM [inhibitor, partial curve, poor fit]
CC1CCCN(S(=O)(=O)c2cc3c(cc2Cl)NC(=O)CO3)C1 (stereo unspecified) 12.6 µM [inhibitor, full curve]
CC(=O)c1ccc(OCC(O)CN2CCN(Cc3ccccc3)CC2)cc1 (stereo unspecified) 89.1 µM [inhibitor, single point]
N#CC(C#N)=Cc1c(N2CCN(c3ccccc3)CC2)nc2ccccn2c1=O 22.4 µM [inhibitor, full curve]
CCCC(c1c(C)n(C)n(-c2ccccc2)c1=O)c1c(C)n(C)n(-c2ccccc2)c1=O 3.16 µM [inhibitor, single point]
O=C(Nc1ccccn1)c1ccc2c(c1)S(=O)(=O)c1ccccc1C2=O 89.1 µM [inhibitor, single point]
O=C(O)C1CC=CCC1C(=O)N1CCc2ccccc21 (stereo unspecified) 89.1 µM [inhibitor, single point]
Cc1ccc(-c2nc3ccccc3[nH]2)cc1NC(=O)/C=C/c1ccco1 35.5 µM [inhibitor, partial curve]
Cc1nc(SC(C)C(=O)c2c(N)n(C)c(=O)n(C)c2=O)c2c(C)c(C)sc2n1 (stereo unspecified) 79.4 µM [inhibitor, partial curve]
Cc1cccc(-n2c(SCc3cc(=O)n4ccsc4n3)nc3ccccc32)c1 50.1 µM [inhibitor, partial curve]
CCc1ccc(NC(=O)CC2C(=O)NCCN2C(=S)Nc2ccccc2)cc1 (stereo unspecified) 70.8 µM [inhibitor, single point]
COc1cc(/C=N/c2oc(C)c(C)c2C#N)cc(Br)c1O 56.2 µM [inhibitor, partial curve]
Cc1ccc(C2CC2c2n[nH]c(=S)n2-c2ccc(C)cc2)cc1 (stereo unspecified) 56.2 µM [inhibitor, partial curve]
Cc1ccc(-n2c(C)c3c(C)nnc(C)c3c2C)cc1C 56.2 µM [inhibitor, partial curve]
O=S(=O)(c1ccccc1F)N1CCN(Cc2cc3c(cc2O)OCO3)CC1 44.7 µM [inhibitor, partial curve]
Cc1ccnc(N/C=C(\C#N)c2nc(-c3cccc(Br)c3)cs2)c1 79.4 µM [inhibitor, partial curve]
COc1cc(C)c(Cl)cc1S(=O)(=O)NCCc1c(C)[nH]c2ccccc12 39.8 µM [inhibitor, partial curve]
CCOC(=O)C1CCCN(CC(O)COc2ccc(OC)cc2C(C)(C)C)C1 (stereo unspecified) 1.12 µM [inhibitor, full curve, poor fit]

Potency, active:
COc1ccc(-c2csc(Cc3nnc(N4CCOCC4)n3-c3ccccc3)n2)cc1OC 63.1 µM
CCC(=O)Nc1nc2ccccc2n1CCN(CC)CC 8.91 µM
O=C(CN1CCCC1)N1CCCC(c2ccc(F)cc2)c2ccc(F)cc21 (stereo unspecified) 0.891 µM
CC1=NN(c2ccccc2)C(=O)C1C=Nc1ccc(N(C)C)cc1 (stereo unspecified) 44.7 µM
O=C(Nc1nnc(-c2cccs2)o1)C1CC1 50.1 µM
COc1cccc(/C=N\NC(=O)C2=NNC(=O)C2C)c1O (stereo unspecified) 56.2 µM
N=c1c2c(ccn1-c1ccccc1)Oc1ccc3ccccc3c1C2c1ccccc1 (stereo unspecified) 39.8 µM
CCOC(=O)c1c(C)[nH]c(N=Nc2cccc(C)c2)c1C 25.1 µM
Cc1ccnc(NC(c2ccccn2)c2c(C)[nH]c3ccccc23)c1 (stereo unspecified) 56.2 µM
CC1CC(NC(=O)Cc2ccc(Br)cc2)CC(C)(C)C1 (stereo unspecified) 39.8 µM
CN(CCO)c1cc(Sc2nc3ccccc3s2)c2nonc2c1[N+](=O)[O-] 22.4 µM
CCCCN(C)C(=O)C1CCN(Cc2cccc(OCc3ccccc3)c2)CC1 39.8 µM
C#CCOCCOCCOCCNc1nc(N2CCN(C(=O)[C@H](Cc3ccc(O)cc3)n3cc([C@@H](N)C(C)CC)nn3)CC2)nc(N2CCN(C(=O)[C@H](CCCCN)n3cc([C@@H](N)CO)nn3)CC2)n1 (stereo partly specified) 39.8 µM
Cc1ccccc1OC(=O)n1c(=S)oc2cc(Cl)ccc21 35.5 µM
S=C(NCc1ccc2[nH]c3c(c2c1)CCCC3)Nc1ccccc1 35.5 µM
O=C(CC1N=C2c3ccccc3N=C(SCc3ccc(Cl)cc3)N2C1=O)NCCc1ccccc1 (stereo unspecified) 79.4 µM
C=CCn1c(-c2cccc(S(=O)(=O)N3CCOCC3)c2)n[nH]c1=S 7.08 µM
CCN(C(=O)COC(=O)c1cc(-c2ccc(C)o2)nc2ccccc12)C1CCS(=O)(=O)C1 (stereo unspecified) 89.1 µM

Potency, inactive:
O=C(O)c1ccccc1C(=O)Nc1ccc(S(=O)(=O)Nc2nccs2)cc1
CN(C)S(=O)(=O)c1ccc(C(=O)N(Cc2cccnc2)c2nc3c(F)cc(F)cc3s2)cc1
O=C(NCC1CCCO1)c1ccc(N2C(=O)C3CCCCC3C2=O)cc1 (stereo unspecified)
S=C(NCc1ccc(Cl)cc1)NC1CCN(Cc2ccccc2)CC1
CCOc1ccc(CCNC(=O)CSCc2nc(-c3cccc(C)c3)oc2C)cc1OCC
O=C(O)c1cc(=O)[nH]c2ccccc12
CNS(=O)(=O)c1cccc(C(=O)OCC(=O)NC2CCCC(C)C2C)c1 (stereo unspecified)
O=C(O)c1ccc(COc2ccc(/C=N/NC(=O)c3cccs3)cc2)cc1
Nc1nonc1-c1nc2ccccc2n1CC(=O)Nc1ccccc1C(=O)O
COc1ccc2nc(SCCN(C)C)[nH]c2c1
CN(CC(=O)Nc1ccc(Cl)c(C(F)(F)F)c1)C(=O)COC(=O)C1CC2CCCC(C1)C2=O (stereo unspecified)
O=C(CSc1nc2ccccc2c(=O)[nH]1)c1ccc(O)cc1O
CC[C@H](C)[C@H]1CNC(=S)N1CC1CCN(CCC23CC4CC(CC(C4)C2)C3)CC1
Cc1nnc(NC(=O)CSc2nccn2-c2cccc(Cl)c2)s1
Cc1oc2c(c1C(=O)NCCCC(=O)O)CCCC2
CCOC(=O)C1(CC2CCCCO2)CCN(Cc2ccccc2-c2ccco2)CC1 (stereo unspecified)
COC(=O)C[C@H]1c2cc(F)ccc2S(=O)(=O)N1C(C)C
CCCCN1C(=O)C(C)=C(C)C1OCCc1ccc(OC)c(OC)c1 (stereo unspecified)
Cc1cc(C(=O)N/N=C/c2ccc([N+](=O)[O-])s2)n[nH]1
COc1ccccc1C(=O)Nc1ccc(OCC(=O)N2C(C)CCCC2C)cc1 (stereo unspecified)
N#Cc1c(SCC(=O)Nc2cccc(F)c2)sc2c(O)cc(=O)[nH]c12
C(#Cc1ccccc1)CN1CCOCC1
CCN(c1ccc(OC)cc1)S(=O)(=O)c1ccc(-c2ccc(=O)[nH]n2)o1
CCOc1ccc(N2CC(C(=O)N3CCN(C(=O)c4ccco4)CC3)CC2=O)cc1 (stereo unspecified)
COc1cccc(CNC(=O)CN2C(=O)N(c3cc(C)ccc3C)S(=O)(=O)c3ccccc32)c1OC
